Assay results reported in the supplement of paper PMC3334620.
In all, about 33,000 sequences were measured (“E-score (-0.5 to 0.5)”: median about -0.036, highest 2% from about 0.37 on). The list shows a part of the results.

Each sequence was assayed against T1, Yer064c (UniProt P40041) (assay: PBM E-score (8-mer binding enrichment) (E-score (-0.5 to 0.5)); higher = stronger / more preferred TF binding; most listed sequences are background and not binding sites). Conditions: protein concentration: 200 nM; construct: GST-full length.
T1 sequence: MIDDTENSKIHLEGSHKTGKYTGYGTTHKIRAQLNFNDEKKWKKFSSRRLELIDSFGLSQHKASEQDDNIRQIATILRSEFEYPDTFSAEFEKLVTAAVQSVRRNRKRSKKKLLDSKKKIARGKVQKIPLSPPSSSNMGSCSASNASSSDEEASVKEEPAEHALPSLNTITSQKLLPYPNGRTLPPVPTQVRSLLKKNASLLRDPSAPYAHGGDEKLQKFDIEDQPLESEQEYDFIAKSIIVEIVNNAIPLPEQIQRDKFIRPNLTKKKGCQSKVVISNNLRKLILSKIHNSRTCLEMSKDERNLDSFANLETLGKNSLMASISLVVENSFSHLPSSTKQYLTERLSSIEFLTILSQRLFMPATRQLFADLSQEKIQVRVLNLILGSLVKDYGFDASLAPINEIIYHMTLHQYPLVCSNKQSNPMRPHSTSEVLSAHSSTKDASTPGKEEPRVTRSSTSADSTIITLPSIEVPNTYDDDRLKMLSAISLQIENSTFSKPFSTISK
How it was run: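 For each ungapped eight-base word taken together with its reverse complement, the Universal PBM Analysis Suite assigned an E-score. Binding data came from GST-tagged yeast transcription factors, applied at about 100-200 nM, on universal all-10-mer Agilent arrays made double-stranded by primer extension. Fluorescent anti-GST marked bound protein, and scans were normalised with masliner.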

Row | Sequence | PBM E-score
1 | CGACGGGC | -0.0405
2 | AATAAGGA | -0.246
3 | ATTTAAAG | 0.212
4 | AGTTGGCA | -0.118
5 | ACTTCACT | 0.00441
6 | GTGATAGA | -0.122
7 | GCAATGAA | 0.0198
8 | GCGGAAGC | -0.283
9 | CTGGGACC | -0.309
10 | CCGCGATC | -0.106
11 | AACCATAG | 0.286
12 | GGCAAGCA | -0.36
13 | ACTGTGAC | 0.397
14 | CTGCTCAA | -0.104
15 | CATTCCAC | -0.0962
16 | GGCTTAGA | -0.184
17 | AACTCCAG | -0.14
18 | CTTAGTTA | 0.221
19 | ACAGTCGG | 0.181
20 | ATCCAAGG | 0.0102
21 | GGATGACA | -0.158
22 | TAACACGA | 0.204
23 | AGTCCTAA | 0.366
24 | TGGACTAA | 0.348
25 | AGCAAAAA | -0.0675

Row | Sequence | PBM E-score
26 | ACACACGT | -0.00017
27 | CTTCCGTA | -0.158
28 | ACGTAATC | 0.212
29 | CAATGTCA | -0.00361
30 | ACTATCGG | 0.139
31 | TCACGGCA | 0.109
32 | CCGAGGCG | -0.0738
33 | AACCCCGG | -0.0921
34 | ATGGATTC | 0.128
35 | ACCCCTGA | 0.0766
36 | ACTCTGTG | 0.182
37 | CCACATCA | -0.0384
38 | CTGTAACA | 0.0752
39 | AAAAAAGT | 0.13
40 | CGGTGCCC | -0.145
41 | AATTGAGT | 0.345
42 | AAGGTCAT | 0.199
43 | GAATGGCC | -0.206
44 | CTCCGGTC | -0.12
45 | CATCGAGC | -0.176
46 | CAGTCGTC | 0.232
47 | CCTCCTGA | 0.116
48 | CTACTTAA | 0.104
49 | CATTCAAG | -0.029
50 | GAGTATGC | 0.0529

Row | Sequence | PBM E-score
51 | CCTCCGTA | -0.0659
52 | AGTCCTAG | 0.29
53 | GGCTCACA | 0.13
54 | GACACGTA | -0.0688
55 | AAGGACCG | -0.246
56 | AGCGTCTC | -0.281
57 | CATGTCGG | 0.0567
58 | CAGCGTAG | 0.13
59 | ACTTGACC | -0.0272
60 | ACCGTGAC | 0.205
61 | AAAAATGG | -0.128
62 | TCCATACA | -0.00517
63 | CGTGGTAC | -0.0776
64 | TATTTCCA | -0.235
65 | AGGAGAGC | -0.261
66 | CTATAGCA | 0.0361
67 | AAGCGTTG | -0.0741
68 | CGGAGCCC | -0.362
69 | AGAAGACA | -0.13
70 | ATACAGTA | 0.0168
71 | CAGCCGCG | -0.0342
72 | CCGGGCAG | -0.0961
73 | AGACATAC | 0.17
74 | AGAGGCAT | -0.122
75 | CGGATTTA | 0.0553

Row | Sequence | PBM E-score
76 | CCAGCAAC | -0.192
77 | GAATGTTA | -0.06
78 | AGCGTCCG | -0.131
79 | AGTGTGAA | 0.00721
80 | AAAGAGAC | 0.207
81 | ATGCATCG | 0.0512
82 | ACGGCGAC | -0.0704
83 | AATTTAGG | 0.0377
84 | AAGCATAA | -0.156
85 | ACTCCGGC | 0.0223
86 | GATGCTAA | -0.0719
87 | ATCGTAGC | -0.00313
88 | GACAACTA | 0.0328
89 | CGTAGGCC | -0.213
90 | GCCCTCGA | -0.143
91 | AGCGTATC | -0.202
92 | ACGAGCCT | -0.11
93 | CTACCCTC | -0.0486
94 | ACCAGCAA | 0.0287
95 | AGCTAGAC | -0.19
96 | GATTGGCA | 0.00543
97 | TCAATCCA | 0.0873
98 | GCACCCAA | -0.168
99 | ATGGGTTG | 0.0482
100 | CTAAGCAG | 0.122

Row | Sequence | PBM E-score
101 | GTCATGTA | 0.259
102 | GCGATCAA | 0.0568
103 | ATGAGATA | 0.0605
104 | CCGGTCCG | 0.0504
105 | TCCGAGGA | 0.0764
106 | CCCGTCTC | -0.27
107 | GGACTTAC | 0.0485
108 | CTAGTCGC | 0.316
109 | CTAGACAA | -0.0709
110 | CAGGAACA | -0.157
111 | ACAGCAAG | -0.259
112 | ACGGCCCC | -0.194
113 | AGGGGGGC | -0.351
114 | GAAGCGGC | -0.368
115 | AACTAGCC | -0.154
116 | GACGTGAA | 0.00076
117 | ATTTACAA | 0.107
118 | ATAACTTG | 0.0525
119 | TCCGTCAA | -0.0923
120 | AATAACCG | -0.0174
121 | AATTTCAG | 0.0274
122 | CCTTGCCC | -0.195
123 | AAAACTTA | 0.118
124 | AGCCAAGG | 0.0335
125 | TACATATA | 0.0992

Row | Sequence | PBM E-score
126 | TCACAGGA | 0.0693
127 | CCATCTTC | 0.0581
128 | TGTTGTAA | 0.06
129 | AGACTAGA | 0.276
130 | ACACCAAC | -0.0121
131 | GGTCCGAA | 0.0476
132 | ACGCTACA | -0.115
133 | GCGGAACC | -0.0134
134 | CAACGTGA | 0.102
135 | CCGCGCCG | -0.274
136 | CCCGAGTC | 0.329
137 | ATGATGCG | 0.128
138 | TACGTTCA | -0.0621
139 | CACACCAC | 0.091
140 | AATCCTTC | -0.0208
141 | ATGCGCGG | -0.268
142 | AAACTGCG | -0.212
143 | GTTTGTTA | 0.052
144 | ATTGATCG | -0.0674
145 | ATGGCAGA | -0.129
146 | CACGTACG | -0.0537
147 | AGACGGTC | -0.274
148 | TGAGAGAA | -0.00978
149 | ATAGCGAA | 0.126
150 | GTCACAGA | 0.237

Row | Sequence | PBM E-score
151 | CAACTCGC | 0.0528
152 | CCCTCTAA | -0.0587
153 | ACCTAGAT | -0.19
154 | CGTCCGTA | 0.0167
155 | CAACAATC | 0.117
156 | CTTGTCCA | 0.0431
157 | CTTATTTA | 0.074
158 | TAGGCCGA | -0.14
159 | GCACCGGA | -0.24
160 | CCAATACC | -0.227
161 | AAAAGGTC | -0.0734
162 | CAACATGC | -0.0143
163 | CTGTTTTA | 0.0684
164 | CGAGTGGA | -0.0321
165 | CGGCGCGC | -0.0871
166 | ATCCAAAC | 0.00765
167 | AGATTCAC | 0.291
168 | AACCAGCC | 0.141
169 | ACGTGTTC | -0.0863
170 | TACGCTAA | 0.0764
171 | TATATGGA | 0.105
172 | CAAAAAAA | 0.123
173 | CATCAGCG | 0.138
174 | AGTTCCAC | -0.0556
175 | ACCTTCCT | -0.248

Row | Sequence | PBM E-score
176 | CCGTAGAC | -0.0459
177 | AACCCCTC | -0.221
178 | CAATAACG | -0.0089
179 | CCCGATAA | 0.0733
180 | TCTGTGAA | 0.13
181 | CCAAGTGG | 0.0141
182 | TATATTCA | 0.0968
183 | GTATTGCA | -0.0498
184 | CGCTCGGA | -0.0666
185 | CAGTTATA | 0.0662
186 | TAGTACCA | -0.0385
187 | AGTCGACG | 0.303
188 | AGAGCACC | -0.336
189 | TGGCGCAA | -0.15
190 | GCCGTGAA | -0.0403
191 | ATTAACTC | 0.255
192 | GGTGTCTA | 0.125
193 | GGGTGAAA | 0.0843
194 | AGATTAAG | 0.245
195 | AGGGTAGC | -0.211
196 | AGCCGAGC | -0.149
197 | ATATCTCG | -0.225
198 | CATGCGTC | 0.0649
199 | CGGTATGA | 0.205
200 | GAGCGTCA | -0.0316

Row | Sequence | PBM E-score
201 | GAGCGAAC | 0.132
202 | TCAATACA | 0.0716
203 | ATAACACC | -0.0883
204 | GTGTGCTA | -0.0763
205 | AGCGAGTG | 0.0737
206 | AATGAAAG | -0.0138
207 | AAGAGTCA | 0.489
208 | CCTAGAGG | -0.175
209 | AAGTTACT | 0.237
210 | GTTGACCA | 0.00753
211 | ACTATACC | 0.0601
212 | CGTACGGA | -0.0695
213 | ATAAGCAG | -0.0252
214 | ACCCGGGC | -0.0621
215 | CGCGCGCA | -0.0205
216 | ATCCTCGC | -0.043
217 | GCACGTCC | -0.279
218 | AACGGGAC | -0.167
219 | TGTTCTAA | -0.131
